Measurements: PubChem BioAssay AID588855 (National Center for Advancing Translational Sciences (NCATS), 2011)
The whole screen tested about 410,000 compounds, of which about 5,000 (1.2%) were called active. The shares of active, inactive and inconclusive entries below differ from those in the screen. Calls follow the shape of the dose curve; as a rule, active = well fitted inhibition curve with a large enough effect; inconclusive = small, poorly fitted or top-dose-only effect; inactive = no such curve, though single readings can be large or run the other way. Potencies of inconclusive entries are doubtful fits and often do not repeat.

Test: qHTS for Inhibitors of TGF-b; also: nearly all actives have a fitted effect of over 65% in size
Settings: HepG2 CAGA-GFP TGF-b/SMAD3 reporter, GFP fluorescence, 18 h, TGF-beta stimulated, 500 pg/mL final; series mostly up to 46.1 µM; activity, negative = inhibition: at the top concentration
How it was run: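 Inhibition was scored as loss of TGF-beta-induced (500 pg/mL final, 18 hours, 37 degrees C) GFP in HEPG2 cells carrying a CAGA-GFP reporter, in DMEM with 1% FBS. Well GFP was summed per cell; Activity was normalised to unstimulated and stimulated DMSO wells, then concentration-response fitting.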
% is scaled to controls: 0 for no effect and ±100 for the full control effect; potency is read from the fitted curve at half-maximal effect; tags tell the direction and shape of the fitted curve.

| SMILES | activity, negative = inhibition | Potency |
| --- | --- | --- |
| COc1ccc2c(c1)c1c(c(=O)n(CCc3ccccc3)c(=O)n1Cc1cccc(F)c1)n2C | inactive: 7.3% | – |
| CCSc1nc2ccccc2c(OCc2ccc(Cl)cc2)c1C(=O)OC | – | inconclusive: 11.2 µM [inhibitor, partial curve, poor fit] |
| COc1ccc(Cl)cc1N1CCN(CCNC(=O)Nc2ccccc2C)CC1 | – | inconclusive: 35.5 µM [inhibitor, single point] |
| CN1/C(=C/c2cccc[n+]2C)Sc2ccccc21 | – | inconclusive: 3.98 µM [inhibitor, partial curve] |
| O=C1C(Cl)=C(N2CCCC2)C(=O)N1c1ccc(F)cc1 | – | inconclusive: 1.26 µM [inhibitor, full curve, poor fit] |
| COc1ccc(-c2cc(NC(C)=O)c3ncc(-c4ccc(OC)c(OC)c4)n3c2)cc1OC | inactive: 0.28% | – |
| CCc1ccc(-c2cn3nc(CC)sc3n2)cc1 | – | inconclusive: 12.6 µM [inhibitor, partial curve, poor fit] |
| Oc1ccccc1-c1cc(-c2ccccc2Cl)[nH]n1 | – | inconclusive: 22.4 µM [inhibitor, single point] |
| Nc1nsc2ccccc12 | – | inconclusive: 10 µM [inhibitor, partial curve, poor fit] |
| COC(=O)c1sccc1S(=O)(=O)N(CC(=O)Nc1cccc(C)c1C)c1ccc(C)c(C)c1 | – | inconclusive: 6.31 µM [inhibitor, full curve, poor fit] |
| Cc1cccc(NC(=O)c2nc(-c3ccccc3)n(-c3ccccc3)n2)c1C | – | inconclusive: 14.1 µM [inhibitor, partial curve, poor fit] |
| CCOC(=O)N1CCN(C(=O)c2oc3ccc(S(=O)(=O)N4CCCCC4)cc3c2C)CC1 | inactive: 0.827% | – |
| Fc1ccccc1NC(=S)Nc1cccc2cnccc12 | inactive: -0.366% | – |
| Cc1ccccc1-c1nc(CS(=O)(=O)CC(=O)NCCCN2CC(C)CC(C)C2)c(C)o1 (stereo not drawn) | inactive: -7.5% | – |
| N#Cc1cc(C(=O)c2cc(Br)ccc2O)cn(C2CCCCC2)c1=O | – | inconclusive: 10 µM [inhibitor, partial curve, poor fit] |
| C[C@@H]1[C@H](c2ccccc2)OCCS(=O)(=O)N1Cc1ccc(Cl)cc1 | – | inconclusive: 35.5 µM [inhibitor, single point] |
| O=C(NCCCN1CCN(c2ccccc2F)CC1)C1CCC(=O)N1C1CCCCC1 (stereo not drawn) | – | inconclusive: 6.31 µM [inhibitor, single point] |
| Cn1cnc([N+](=O)[O-])c1S(=O)(=O)c1ccc(Cl)cc1 | – | active: 11.2 µM |
| Oc1c(C(c2ccc(F)cc2)N2CCN(Cc3ccccc3)CC2)sc2nc(-c3ccco3)nn12 (stereo not drawn) | – | inconclusive: 11.2 µM [inhibitor, partial curve, poor fit] |
| CN(C1CCCCC1)S(=O)(=O)c1ccc(NC(=O)c2ccco2)cc1 | – | inconclusive: 35.5 µM [inhibitor, partial curve, poor fit] |
| CC(C)CN(C(=O)COC(=O)c1c2c(nc3ccccc13)CCC2)c1c(N)n(Cc2ccccc2)c(=O)[nH]c1=O | – | inconclusive: 6.31 µM [inhibitor, single point] |
| CC(C)(C)OC(=O)n1cc(C(=O)c2ccccc2O)cn1 | inactive: 6.7% | – |

| SMILES | activity, negative = inhibition | Potency |
| --- | --- | --- |
| C=CCn1c(O)c(N=NC(=O)c2ccccc2NS(=O)(=O)c2cccs2)c2ccccc21 | – | inconclusive: 0.1 µM [inhibitor, full curve, poor fit] |
| CCN(CC)S(=O)(=O)c1ccc2[nH]cc(C(=O)NCCC3=CCCCC3)c(=O)c2c1 | – | inconclusive: 25.1 µM [inhibitor, single point] |
| CC(C)CCN1C(=O)c2ccc(C(=O)Nc3ccc(Br)cc3C(=O)O)cc2C1=O | inactive: -1.46% | – |
| CC(/C=C/c1ccco1)=N/NC(=O)C1COc2ccccc2O1 (stereo not drawn) | – | inconclusive: 11.2 µM [inhibitor, partial curve] |
| CCc1ccc(-n2nc(CO)c(C(=O)NC)n2)cc1 | – | inconclusive: 20 µM [inhibitor, partial curve, poor fit] |
| CC(C)CC1C(=O)N(Cc2cn(CCC3OCCO3)nn2)CCS(=O)(=O)N1Cc1ccc(-c2ccc(F)cc2)cc1 (stereo not drawn) | – | inconclusive: 35.5 µM [inhibitor, single point] |
| CCCNC(=O)C1(C)CCCN(C(=O)/C=C/c2ccccc2)C1 (stereo not drawn) | inactive: -1.76% | – |
| Cc1cc(C(=O)NC2CC(C)(C)Cc3c2cnn3-c2ccc(F)cc2)no1 (stereo not drawn) | inactive: 0% | – |
| CC(C)CCNC(=O)C1CCN(C(=O)c2cc3sccc3n2Cc2ccc(Cl)cc2)CC1 | – | active: 6.31 µM |
| Cc1ccc(Cc2c(-c3ccco3)nc3ccc(C)cn23)cc1 | – | inconclusive: 28.2 µM [inhibitor, single point] |
| COc1ccc(N(CC(=O)Nc2cccnc2)S(=O)(=O)c2ccccc2)cc1Cl | inactive: -4.17% | – |
| COc1cccc(NC(=O)CN(C)C(=O)c2cccc(S(=O)(=O)N3CCN(c4ccc(F)cc4)CC3)c2)c1 | – | inconclusive: 11.2 µM [inhibitor, partial curve, poor fit] |
| COc1ccc([C@@H]2C[C@H](c3ccccc3)Oc3cc(OC)c(OC)c(OC)c32)cc1 | – | inconclusive: 5.62 µM [inhibitor, full curve, poor fit] |
| CCOC(=O)COc1ccc(Br)cc1/C=C/c1[nH]c(=O)[nH]c(=O)c1[N+](=O)[O-] | – | inconclusive: 25.1 µM [inhibitor, single point] |
| CCC(=O)N1CCc2cc(CNS(=O)(=O)c3ccc(CC(C)C)cc3)ccc21 | – | inconclusive: 35.5 µM [inhibitor, single point] |
| Cc1cc([N+](=O)[O-])ccc1-c1ccc(/C=N/NC(=O)c2ccc(Br)o2)o1 | – | inconclusive: 5.62 µM [inhibitor, single point] |
| COC(=O)c1sc(NC(=O)CSc2nnnn2C)nc1C | inactive: 29.9% | – |
| c1ccc2c(c1)Cn1nnnc1-2 | inactive: -9.95% | – |
| COc1cc(Cl)c(C)cc1NC(=O)c1ccccc1NC(=O)CN1CCN(C(C)=O)CC1 | inactive: -21.2% | – |
| COc1cc(C(=O)NCC(c2ccc(F)cc2)N2CCOCC2)ccc1OCc1ccccc1Cl (stereo not drawn) | – | active: 20 µM |
| Cc1ccc(S(=O)(=O)Nc2ccccc2CNc2cccc(C)n2)cc1 | inactive: 0% | – |
